# From publication PMC6919601, “Identification of Plasmodium dipeptidyl aminopeptidase allosteric inhibitors by high throughput screening” (PLoS ONE, 2019)
# The whole screen tested about 110,000 compounds, of which about 230 (0.21%) showed an effect of 50% or more. The list shows a part of the results.
# Target: DPAP1 (Plasmodium falciparum, UniProt Q8IIJ9)
# Assay: primary screen, percent inhibition; read by cleavage of a fluorogenic dipeptide substrate; higher = more effect of the substance
# Parameters: species or system P. falciparum D10 trophozoite lysates; single well
# 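Further: 30 min substrate incubation versus DMSO and 10 µM JCP410 controls.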
# Chain of DPAP1 (Q8IIJ9 whole entry, looked up): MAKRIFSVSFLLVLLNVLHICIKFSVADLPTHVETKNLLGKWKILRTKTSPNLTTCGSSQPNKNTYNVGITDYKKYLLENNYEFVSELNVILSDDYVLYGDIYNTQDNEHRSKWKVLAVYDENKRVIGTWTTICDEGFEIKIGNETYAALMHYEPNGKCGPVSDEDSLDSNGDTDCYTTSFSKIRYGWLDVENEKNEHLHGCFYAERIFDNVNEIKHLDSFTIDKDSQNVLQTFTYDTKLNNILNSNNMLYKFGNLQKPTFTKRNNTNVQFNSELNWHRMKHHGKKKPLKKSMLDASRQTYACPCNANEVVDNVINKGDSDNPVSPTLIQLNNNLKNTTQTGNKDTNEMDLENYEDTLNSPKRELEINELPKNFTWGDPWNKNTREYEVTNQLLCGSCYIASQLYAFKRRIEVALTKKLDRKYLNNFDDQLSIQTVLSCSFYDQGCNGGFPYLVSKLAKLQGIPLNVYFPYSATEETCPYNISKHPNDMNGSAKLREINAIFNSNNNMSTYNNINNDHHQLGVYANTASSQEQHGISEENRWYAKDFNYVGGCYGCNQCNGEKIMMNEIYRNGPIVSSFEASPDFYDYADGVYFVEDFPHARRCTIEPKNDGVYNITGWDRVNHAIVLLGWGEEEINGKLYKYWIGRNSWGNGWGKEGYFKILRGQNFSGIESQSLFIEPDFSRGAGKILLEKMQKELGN
row,Compound,% Inhibition @ 10 uM [%]
1,O=S(=O)(NCc1ccc2[nH]c3c(c2c1)CCCC3)c1ccc(Cl)s1,0.00706
2,CCOc1ccc(S(=O)(=O)N2CCSC2c2ccc(Cl)cc2)cc1 (stereo not drawn),-0.865
3,COc1cc(C2c3sc(O)nc3SC3C4CC(C5C(=O)N(CC(=O)O)C(=O)C45)C23)ccc1O (stereo not drawn),3.87
4,Cc1cc(C)n(CCC(=O)O)c(=O)n1,-1.29
5,CC1=C(C(=O)Nc2cccc(Cl)c2)C(c2ccc(Cl)cc2)NC(=O)N1 (stereo not drawn),-6.33
6,CCNC(=O)/C(C#N)=C/c1c(Oc2ccc(Br)cc2)nc2ccccn2c1=O,2.16
7,Cc1ccc2[nH]c(C(C)(C)C)cc2c1,3.72
8,COc1ccc(C2C(C(N)=O)=C(C)Nc3nc(-c4ccccc4)nn32)cc1OC (stereo not drawn),-1.47
9,CCOc1ccccc1CNCc1c(C(=O)O)c(C)n(Cc2ccc(F)cc2)c1C,-5.49
10,NC(=O)C1(S(=O)(=O)c2ccccc2)CC1,-4.06
11,CCOc1ccc(-n2c(C)nc3cc(C(=O)NCC4CCCO4)ccc32)cc1 (stereo not drawn),5.85
12,CC(C)Sc1nn2c(=O)cc(CSc3nc4ccccc4[nH]3)nc2s1,1.15
13,O=C(C1COc2ccccc2O1)N1CCn2c(nc3ccccc32)C1 (stereo not drawn),-8.68
14,Fc1ccc(CNCCC2=CCCCC2)cc1,2.38
15,Cc1nnc(C)n1/N=C/c1cc(C(C)(C)C)c(O)c(C(C)(C)C)c1,3.06
16,Cc1ccccc1C(=O)Nc1ncn(Cc2ccccc2)n1,2.26
17,COCc1cc(C)nc(SCC(=O)Nc2ccc(Cl)c(Cl)c2)c1C#N,-1.06
18,Cc1ccc(-c2nn3c(-c4ccncc4)nnc3s2)cc1C,19
19,Cc1oc(-c2ccc(Cl)cc2)nc1CS(=O)CC(=O)NCCC1=CCCCC1 (stereo not drawn),-2.85
20,CC(C(=O)N1CCN(C)CC1)N1C(=O)c2ccccc2C1=O (stereo not drawn),-2.75
21,CC(C)(C)c1[nH]nc2c1C(c1cccs1)C(C#N)=C(N)O2 (stereo not drawn),2.67
22,O=C(O)CCn1c2c(c3ccccc31)CCCC2,-0.744
23,C=CCSc1ncccc1C(=O)NCc1ccc(C)cc1,2.79
24,O=C(c1cccs1)N1CCc2ccccc21,1.83
25,O=C(NCc1ccccc1)c1ccc(CSCc2ccc(Cl)cc2)o1,3.66
26,N#C/C(=C\c1ccccc1Cl)C(N)=O,-1.25

row,Compound,% Inhibition @ 10 uM [%]
1,Nc1cc(N)nc(SCC(=O)NCc2ccccc2)n1,3.72
2,Cn1c(=O)c2sccc2n2c(CCC(=O)NCCc3c[nH]c4ccccc34)nnc12,-3.13
3,CC(C)c1ncc(C(O)c2ccccc2)n1C (stereo not drawn),3.15
4,CCOc1ccc(NC2=C(Cl)C(=O)N(c3ccc(OC)cc3)C2=O)cc1,-5.48
5,COc1ccc(/C=C(\NC(=O)c2ccccc2)C(=O)NC(C)(C)CO)cc1,0.76
6,COc1ccc(-c2cn3ccc4ccccc4c3n2)cc1OC,-7.02
7,Cc1ccc(OCc2nc3cc(Br)cnc3[nH]2)c(Cl)c1,-8.42
8,CN(c1ccc(C(=O)NC(C)(C)C)cc1)S(C)(=O)=O,12.4
9,C=C(C)CN(CC)Cc1ccc([N+](=O)[O-])o1,-0.603
10,CCCc1[nH]nc2c1C(c1ccc(C)cc1)C(C#N)=C(N)O2 (stereo not drawn),0.76
11,CC(=O)N1c2ccc(NC(=O)C(F)(F)F)cc2C(C)(c2ccccc2)CC1(C)C (stereo not drawn),16.3
12,NS(=O)(=O)c1ccc(CCNC(=O)CSc2ncnc3c2sc2ccccc23)cc1,-2.14
13,O=C(CSCC(=O)Nc1ccc2ccccc2c1)NCc1ccccc1,-5.07
14,O=C(Nc1cccc(Cl)c1)NC1CCCC1,-6.21
15,O=C(N[C@H](/C=C/S(=O)(=O)c1ccccc1)CCc1ccccc1)C(CCS(=O)(=O)c1ccccc1)NC(=O)N1CCOCC1 (stereo partly drawn),-0.214
16,CC(=O)c1c(C)oc2ccc(N(C(=O)c3ccccc3)S(=O)(=O)c3ccc(F)cc3)cc12,-14.4
17,CCC(C(=O)Nc1nc(C)cs1)c1ccccc1 (stereo not drawn),-9.85
18,Cc1cnc(NC(=O)CSc2nc(O)c3ccccc3n2)s1,3.53
19,Cn1nnnc1SCCCNCc1cc(Br)ccc1OCc1ccc(F)cc1,-6.6
20,O=CN1CCN(Cc2c(F)cccc2F)CC1,-3.5
21,CC(C)CNS(=O)(=O)c1ccc(CCC(N)=O)cc1,2.95
22,Cc1ccc2c(N)c(C(=O)c3ccc(Cl)cc3)sc2n1,-3.13
23,CC(=O)N1c2ccccc2N=C2CC(C)(C)CC(O)=C2C1c1c(F)cccc1Cl (stereo not drawn),-5.07
24,CN1CCN(C(=O)c2cc3nc(-c4ccc(Cl)c(Cl)c4)cc(C(F)(F)F)n3n2)CC1,-3.52
25,CN(CCc1ccccn1)Cc1ccc(-c2ccccc2)cc1,4.03
26,Cn1c(=N)n(CCOc2ccccc2)c2ccccc21,0.132

row,Compound,% Inhibition @ 10 uM [%]
1,CCN1CCc2c(sc3nc(SC)nc(N)c23)C1,-7.19
2,COc1ccc(NC(=O)C2=C(C)NC(=O)NC2c2ccc(Cl)cc2)cc1 (stereo not drawn),4.03
3,Cc1ccccc1S(=O)(=O)Cc1ccc(C(=O)NCCCN2CCC(C)CC2)o1,-4.96
4,COc1ccc(F)cc1S(=O)(=O)N1CCN(C(=O)c2ccco2)CC1,1.76
5,CCC(CC)C(=O)Nc1ccc(C(=O)Nc2cc(C)on2)cc1,0.331
6,CC1=NC(C)(C)C(C)c2ccc3ccccc3c21 (stereo not drawn),-2.89
7,Clc1cccc(N2CCN(Cc3cccc(Cl)c3Cl)CC2)c1,-6.36
8,CN1C(=O)C2(OCC(C)(c3ccccc3)CO2)c2ccccc21 (stereo not drawn),-0.725
9,COCC(=O)n1nc(-c2cccnc2)nc1NCc1ccc(OC)cc1,-2.92
10,O=C1OC2(C(=O)c3ccccc3C2=O)C(C(=O)c2ccc(F)cc2)=C1O,-5.14
11,Cc1sc(NC(=O)CN2CCOCC2)c(C(=O)c2ccccc2)c1C,-3.64
12,CCCCNC(=O)C1CCC(=O)N1CCc1ccccc1 (stereo not drawn),4.81
13,COC(=O)c1c(NC(C)=O)c2c(C)c(C)sc2n1Cc1cccc(OC)c1,3.3
14,COc1ccc(CN2CCN(c3ccc(F)cc3)CC2)cc1OC,-1.77
15,COCCCNc1oc(/C=C/c2ccc(F)cc2)nc1C#N,-8.25
16,N#Cc1c(NC(=O)CSc2nc(N)cc(O)n2)sc2c1CCCC2,-0.941
17,Cc1[nH]c2ccccc2c1C(=O)/C=C/c1ccccc1F,1.17
18,COCc1cc(C)nc(SCC(=O)N(c2ccccc2)c2ccccc2)c1C#N,-8.36
19,CCC(C)Nc1nc(C)nc2c1sc1nc3c(cc12)COC(C)(C)C3 (stereo not drawn),1.84
20,COc1ccc(C(=O)C2=C(O)C(=O)N(CCCn3ccnc3)C2c2ccc(Br)cc2)cc1 (stereo not drawn),-3.45
21,Cc1ccc(-c2cc(C(=O)NCC3CCCO3)c3ccccc3n2)c(C)c1 (stereo not drawn),-1.41
22,NC(=O)CSc1nnnn1CC(CC(=O)O)c1ccccc1 (stereo not drawn),-0.0735
23,CCn1c(C(=O)O)c(CNCc2cc(Br)ccc2OC)c2ccc(C)cc21,-0.397
24,Cc1nc2c(Cl)cccc2c(O)c1CN(C)Cc1ccccc1,-0.577
25,COc1ccc2c(Sc3ccccc3)c(C(=O)NC(C)C)[nH]c2c1,-6.64
26,COC(=O)c1c(NC(=O)c2cccnc2Cl)sc(C(=O)N(C)C)c1C,5.52

row,Compound,% Inhibition @ 10 uM [%]
1,Cc1ccccc1OCc1nc(C#N)c(NCc2ccc(F)cc2)o1,3.62
2,COc1ccc(/C=C2\N=C(c3ccccc3Cl)OC2=O)c(OC)c1OC,3.74
3,OCCN(Cc1ccccc1)Cc1ccc(Cl)c(Cl)c1,1.08
4,Cc1cc(C)n2ncc(-c3ccccc3)c2n1,-4.67
5,Cc1onc(-c2ccccc2Cl)c1C(=O)Nc1ccc(S(N)(=O)=O)cc1,0.0265
6,COc1ccc(CN2CCN(Cc3csc(C)c3)CC2)c(OC)c1OC,5.15
7,Cn1c(C(=O)N2CCC(C(=O)N3CCN(c4ccccn4)CC3)CC2)cc2sccc21,6.46
8,CC(C)OC(=O)c1cnn2c(C(F)(F)F)cc(-c3ccc(F)cc3)nc12,-1.93
9,CCc1ccc(OCC(=O)Nc2ccc(S(=O)(=O)N3CCCCC3)cc2)c(Br)c1,-1.92
10,O=CN(/C=C1\Sc2ccccc2C1=O)Cc1ccccc1,21.8
11,COc1ccc(S(=O)(=O)N(C)CC(=O)Nc2ccc(F)cc2F)cc1,-1.36
12,COCCn1c(CN2CCC(Cc3ccccc3)CC2)nc2c1c(=O)n(C)c(=O)n2C,-1.43
13,CCCCc1ccc(NC(=O)c2ccn(C)n2)cc1,-0.736
14,COc1ccc(C2=NC(=O)C3=Cc4cccc(C)c4OC3N2)c(OC)c1OC (stereo not drawn),3.61
15,O=C(NCc1ccncc1)C1CCN(S(=O)(=O)c2ccc(Br)cc2)CC1,-1.6
16,CC1=C(C#N)C(c2cccnc2)C2=C(O)CC(c3ccc(Cl)cc3)CC2=N1 (stereo not drawn),-0.436
17,CCc1nc(=O)c2ccccc2n1-c1cccc(C(F)(F)F)c1,-3.71
18,COc1ccc(C2CC3=NC(C)=C(C(=O)Nc4ccccn4)C(c4cccs4)C3=C(O)C2)cc1 (stereo not drawn),-1.38
19,NC(=O)CSc1nnc(CSc2ncccn2)n1-c1ccc(Cl)cc1,-0.942
20,Cc1ccc(C(C)C)c(OCC(=O)Nc2ccccc2)c1,-6.07
21,CC1(C(=O)O)CCC(C(=O)NC2CCCCC2)C1(C)C (stereo not drawn),2.33
22,COc1ccc(CNC(=O)c2cccc3c2C(=O)N(CC2CCCO2)C3)cc1 (stereo not drawn),0.708
23,O=c1c2c3c(sc2n2cnnc2n1Cc1ccccc1)CCCC3,1.72
24,CCn1c(SCC(=O)c2ccccc2)nc2c1c(=O)n(C)c(=O)n2C,0.851
